# Source: PubChem BioAssay (NCI)
# Several values for one entry are separate records, joined by “and”; a condition that tells them apart may be missing. Equal values may be shown once.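 Results reflect a 48-hour exposure of cells in 96-well plates to compound at five concentrations. At the GI50, growth is halved. At the TGI there is no net growth.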
# Test system: NCI-H322M lung
# Assay: NCI anticancer screen, dose series, 48 h
Compound,TGI,GI50
Clc1ccc(N=Nc2nc3ccccc3nc2N=Nc2ccc(Cl)cc2Cl)c(Cl)c1,> 100 µM,
CCC(C)C1=C(OC(C)=O)[N+]2([O-])Oc3ccc(-c4c(OC(C)=O)c(OC(C)=O)c(-c5ccc(OC(C)=O)cc5)c(OC(C)=O)c4OC(C)=O)cc3OC2(C(C)CC)C(=O)N1OC(C)=O (centres undefined),> 50 µM,
CCOC(=O)c1cc2c(n1Cc1cccc(OC)c1)-c1oncc1CCC2,> 100 µM,7.94 µM
NCCSC(c1ccccc1)c1ccccc1,48.9 µM,
CC1OC(n2c3ccccc3c3c4c(c5c6ccccc6[nH]c5c32)C(=O)N(CCN[C@@H]2CCC[C@H]2N)C4=O)CC(O)C1O (some centres undefined),8.73 µM,1.99 µM
COC(=O)CNS(=O)(=O)c1ccc(-c2c3nc(c(-c4ccc(S(=O)(=O)NCC(=O)OC)cc4)c4ccc([nH]4)c(-c4ccc(S(=O)(=O)NCC(=O)OC)cc4)c4nc(c(-c5ccc(S(=O)(=O)NCC(=O)OC)cc5)c5ccc2[nH]5)C=C4)C=C3)cc1,> 100 µM,
CC(=O)O[C@H]1[C@@H]2OC(=O)[C@@](O)(CC3CCCO3)[C@@H]2CC(=O)[C@](C)(O)CC/C=C(\C)CCC[C@@H]1C (some centres undefined),> 100 µM,
COc1cc(CO)c(CC(=O)NCCCc2ccccc2)cc1OC,> 100 µM,
CCCNC(=O)CCC(C)C1CCC2C3C(C[C@H](OC(C)=O)[C@]12C)[C@@]1(C)CCC2(C[C@H]1C[C@H]3OC(C)=O)OOC1(CC[C@]3(C)C4C[C@H](OC(C)=O)[C@]5(C)C(C(C)CCC(=O)NCCC)CCC5C4[C@H](OC(C)=O)C[C@@H]3C1)OO2 (some centres undefined),> 100 µM,
O=C1c2ccccc2OP(=O)(OCC(F)(F)F)OC1(C(F)(F)F)C(F)(F)F (centres undefined),> 100 µM,
CCOC(=O)Cn1c(=O)c2nc(SC)sc2n(CC)c1=S,> 100 µM,
CC1=NN(c2cccc(Cl)c2)C2(SCC(=O)N2c2nc3ccccc3s2)/C1=C\c1cccs1 (centres undefined),42.3 µM,
CCn1cc(C(=O)N/N=C/c2ccccc2)c(=O)c2cc(F)c(N3CCNC(C)C3)c(F)c21 (centres undefined),3.17 µM,1.78 µM
COc1ccc2c(c1)[nH]c1c(/C=C/c3ccccc3)nccc12,36.4 µM,
NCCCCc1cc(O)c2c(c1O)C(=O)c1ccccc1C2=O,19.2 µM,
CCOC1=C2C(=O)OC(=O)C2C2CCCCC2=C1 (centres undefined),> 100 µM,
C/C=C\C(CC(=O)NCCC1CN(S(=O)(=O)c2ccc(C)cc2)c2ccccc21)CC(=O)OC (centres undefined),> 100 µM,
CC1OC(OC2C[C@](O)(C(=O)CF)Cc3c(O)c4c(c(O)c32)C(=O)c2ccccc2C4=O)CC(N)C1O (some centres undefined),1.73 µM,
CCSc1nc2cccc([N+](=O)[O-])c2n1CC,> 100 µM,
COc1ccc(C(=O)c2sc(Nc3ccc(Cl)cc3)nc2N)cc1,> 88.8 µM,
c1ccc(C(c2ccccc2)c2cccnc2)cc1,> 100 µM,
O=c1oc(Cl)c(Cl)c2ccccc12,> 100 µM,> 100 µM

Compound,TGI,GI50
COc1ccc(C2CC(C)(O)Oc3cc4c(cc32)OCO4)cc1 (centres undefined),> 100 µM,
CNC(=O)OCc1c(CO)nc(SC)n1C,> 100 µM,
O=C(O/C(=C(/N=Nc1ccccc1)c1ccccc1)c1ccccc1)c1ccccc1,> 100 µM,
O=C(c1ccc(Cl)cc1)N(C(=O)N1CCC(c2ccccc2)CC1)c1ccccc1,> 100 µM,
O=C(/C=C/c1ccc(O)c(-c2cc(C(=O)/C=C/c3ccc(O)cc3)c(O)cc2O)c1)c1ccc(O)cc1O,> 50 µM,
CC(=O)O[C@H]1C(=O)[C@@]2(C)[C@H]([C@H](OC(=O)c3ccccc3)[C@]3(O)C[C@H](OC(=O)[C@H](O)[C@@H](NC(=O)c4cccc(N=[N+]=[N-])c4)c4ccccc4)C(C)=C1C3(C)C)[C@]1(OC(C)=O)CO[C@@H]1C[C@@H]2O,0.213 µM,
Cc1ccccc1C(=O)N/N=C/c1ccc(Sc2nccn2C)c([N+](=O)[O-])c1,> 100 µM,
NC(=O)c1ccc(I)c(N=O)c1,> 100 µM,> 100 µM
Cc1cc2c(C)nn(Cc3ccccc3)c2c(C(N)=O)c1C,> 100 µM,
O=C1CSC(c2ccc([N+](=O)[O-])cc2)N1c1ccc(-n2c(-c3ccccc3)nc3ccccc3c2=O)cc1 (centres undefined),> 100 µM,
CN1CCN(c2ncc3c(n2)sc2c(=O)n(-c4ccccc4)cnc23)CC1,> 100 µM,
CC(C)C1=CC23CCC4C(C)(C(=O)O)CCCC4(C)C2CC1C1C(=O)N(c2ccccc2N2C(=O)C4C5CC6C7(C)CCCC(C)(C(=O)O)C7CCC6(C=C5C(C)C)C4C2=O)C(=O)C13 (centres undefined),10.8 µM,
COc1cccc([C@H]2C/C(=N\NC(=O)C(=O)N[C@@H](C)c3ccccc3)c3ccccc3N2)c1,> 100 µM,
COc1nc(C#CC2(O)CCCCC2)nc(OC)n1,29.7 µM,
COc1ccc(N=Cc2ccc(N(CCC#N)S(=O)(=O)c3ccccc3)cc2)cc1,> 100 µM,
COc1c(O)cc2oc(-c3ccc(O)cc3)cc(=O)c2c1O,> 100 µM,
CCC(C)[C@H]1O[C@]2(C=C[C@@H]1C)C[C@@H]1C[C@@H](C/C=C(\C)[C@@H](OC3C[C@H](OC)C(O[C@H]4C[C@H](OC)[C@@H](O)[C@H](C)O4)[C@H](C)O3)[C@@H](C)/C=C/C=C3\CO[C@@H]4[C@H](O)C(C)=C[C@@H](C(=O)O1)[C@]34O)O2 (some centres undefined),2 µM,0.961 µM
O=c1ccn(C2CC(O)C(CO)O2)c(=O)[nH]1 (centres undefined),> 5000 µM,> 5000 µM
COc1cc2c(cc1OCCCCN1C(=O)c3cccc4cccc(c34)C1=O)N=C[C@@H]1CCCN1C2=O,46 µM,
CC(=O)OC[C@]12CC[C@@H](C(=O)CBr)[C@@H]1[C@H]1CC[C@@H]3[C@@]4(C)CCCNC(C)(C)[C@@H]4CC[C@@]3(C)[C@]1(C)CC2,28.2 µM,14.9 µM
O=C(CCc1ccc(O)c(O)c1)NCCc1cc(O)cc(O)c1,> 100 µM,
O=C1NC2(CCCCCC2)C2CCCCCCC12O (centres undefined),> 100 µM,

Compound,TGI,GI50
Cc1ccc(/C=C/c2nnc(N/N=C/c3ccc4c(c3)OCO4)[nH]c2=O)cc1,48.1 µM,
N#C/C(c1nc2ccccc2[nH]1)=c1\s/c(=C/c2ccc(Cl)cc2)c(=O)n1-c1ccccc1,> 100 µM,
O=C(O)c1cc2ccc3ccccc3c2oc1=O,> 100 µM,
C#CC1(O)C(COP(=O)(O)OC(COCCCCCCCCCCCCCCCCCC)COP(=O)(O)OCC2OC(n3cc(F)c(=O)[nH]c3=O)CC2O)OC(n2ccc(N)nc2=O)C1O (centres undefined),17.4 µM and 11 µM,
O=C1NCc2ccccc2S(=O)(=O)n2cccc21,> 100 µM,
O=C(NC(=O)c1cn(CCN(CCO)C(=O)NCCCCCCNC(=O)N(CCO)CCn2cc(C(=O)NC(=O)OCc3ccccc3)c(=O)[nH]c2=O)c(=O)[nH]c1=O)OCc1ccccc1,> 100 µM,
COc1cccc(C2=C(c3c(C)n(C)c4ccccc34)C(=O)NC2=O)c1,> 25 µM,> 25 µM
CC(C)=CCC/C(=C/CC/C(=C\CCc1ccoc1)C(=O)O)C(=O)O,> 100 µM,
c1csc(-c2cn3nc(-c4c[nH]c5ccccc45)sc3n2)c1,52.7 µM,4.85 µM
CC1=CC(=O)c2ccccc2C1=O,28.6 µM,
CN1c2ccccc2N(C(=O)c2ccc(Cl)cc2)C(CC(=O)O)c2cccn21 (centres undefined),> 100 µM,
CN1CNc2nc(N)n(C)c(=O)c2C1,> 10 µM,
C(=N\NC1=NCCN1)/c1ccc(-c2cn3cc(/C=N/NC4=NCCN4)ccc3n2)cc1,> 70.8 µM,
NC(=O)c1cc2ccc(O)cc2oc1=Nc1ccccc1,> 100 µM,
Cc1cn(C2CC(O)C(COC(=O)NCCC(F)(F)C(F)(F)C(F)(F)C(F)(F)F)O2)c(=O)[nH]c1=O (centres undefined),> 100 µM,
COc1ccc2c3c1O[C@H]1C(OC)C=CC4C(C2)N(Cc2cccs2)CCC341 (some centres undefined),> 100 µM,
COC(=O)C(C#CCCCCC#CC(NC(=O)OCc1ccccc1)(C(=O)OC)C(F)(F)F)(NC(=O)OCc1ccccc1)C(F)(F)F (centres undefined),> 100 µM,
C1=CC=C2NCCCCCCCNC3=CC=CC=CC3=NCCCCCCCN=C2C=C1,> 100 µM,
Cc1cc2c(cc1Cl)S(=O)(=O)OC(c1ccc([N+](=O)[O-])cc1)=N2,> 100 µM,
COc1cc2oc3cc(=O)cc4oc(-c5ccccc5)cc(c2c2c1CCC(c1ccccc1)O2)c43 (centres undefined),> 100 µM,
COc1cccc2c1Cc1cc(-c3ccccc3)[n+](C)n1-2,83.2 µM,
Cc1c(N2C(=O)CS(=O)(=O)C2c2cccc(Oc3ccccc3)c2)c(=O)n(-c2ccccc2)n1C (centres undefined),66.7 µM,

Compound,TGI,GI50
COc1cccc(-c2nn(-c3ccccc3)cc2-c2ccnc(NCCCNC(=O)Nc3ccc(Cl)c(Cl)c3)c2)c1,14.7 µM,2.71 µM
Cc1nn(-c2ccccc2)c(C)c1/C=N/N=C1\SCC(=O)N1c1ccccc1,88.1 µM,
C=CCC1(O)c2ccccc2C(=O)c2c(NCCN(CC(=O)OCC)CC(=O)OCC)cccc21 (centres undefined),> 100 µM,> 100 µM
Cn1c2ccc3cc2c(=S)c2cc(ccc21)OCCOCCOCCOCCOCCO3,> 10 µM,
CC12CC3OC(=O)C1COC14OC5(C2C1=O)C(O)(CCC1C4CC(O)C2(O)CC=CC(=O)C12C)C(=O)OC35C (centres undefined),> 100 µM,
CCN(CC)/C(Sc1ccccc1)=C(\C(Cl)=C(Cl)Cl)[N+](=O)[O-],39.9 µM,
CCCc1cc(=O)[nH]c(-n2nc(C)cc2C)n1,57.7 µM,2.75 µM
O=C1NC(=S)N/C1=C\c1ccc(Br)s1,> 100 µM,
Cc1ccc(N2C(=O)CS/C2=C(\C#N)c2nc3ccccc3[nH]2)cc1,> 100 µM,
CC(=O)OCC1OC(OC2CC3C(C)(C)C(OC(C)=O)CC[C@]3(C)C3CCC45CC4(CCC5[C@@H](C)C[C@H](O)C(O)C(C)(C)O)[C@]23C)C(O)C(O)C1O (some centres undefined),> 10 µM,
CN(C)C(=S)/N=c1\ssc(=S)n1Cc1ccccc1,41.6 µM,
CCCN(CCCc1ccccc1)CCc1ccc2[nH]c(=S)[nH]c2c1,> 100 µM,
CN(C)CC(CC1=C(CC(CN(C)C)N(C)C)CCC1)N(C)C (centres undefined),> 100 µM,
COc1cccc2c1ccc1nc3cccc(C(=O)N[C@H](C)CN(C)C)c3nc12,3.82 µM,0.0919 µM
O=C1c2cccc(NCCN=Cc3cc([N+](=O)[O-])ccc3O)c2C(=O)c2c(NCCN=Cc3cc([N+](=O)[O-])ccc3O)cccc21,> 100 µM,3.08 µM
COc1ccc(CNC(=O)NCn2cc(-c3ccccc3)nn2)cc1,> 100 µM,
CCCCCCCCCCCCCCCCOCC(CC(F)(F)P(=O)(OCC)OCC)OC(C)=O (centres undefined),30.9 µM,
CCCCCCC(=O)O[C@H]1CC[C@H]2[C@@H]3CCC4C/C(=N/NC(=O)c5cccc6c(=O)c7ccccc7[nH]c56)C=C(C)[C@]4(C)[C@H]3CC[C@]12C (some centres undefined),> 25 µM,
C=CCNC(=O)N(CCCC(NC(C)=O)C(=O)NCc1ccccc1)Cc1ccccc1 (centres undefined),> 100 µM,
O=C(C[n+]1ccc2ccccc2c1)c1ccc2ccc3ccccc3c2c1,17.4 µM,
CNC(=O)c1cccc2cc(Oc3ccnc4cc(OCC5(N)CC5)c(OC)cc34)ccc12,20.2 µM,6.71 µM
CCCCc1ccc(Nc2nc(SC)c3[nH]cnc3n2)cc1,> 100 µM,
